Out of some 1,300 compounds screened, about 30 (2%) were called active. Roughly 10% stayed inconclusive and do not appear here. Calls follow the shape of the dose curve; as a rule, active = well fitted inhibition curve with a large enough effect; inconclusive = small, poorly fitted or top-dose-only effect; inactive = flat fitted curve, though single readings scatter. The list shows a part of the results.
Assay: qHTS for antagonists of the Thyroid Stimulation Hormone Receptor: Hit Validation in HTRF Activity in a Luteinizing Hormone Receptor Cell Line
Settings: LHR-expressing cell line, cAMP HTRF, antagonist mode; series mostly up to 58 µM; activity change, negative = inhibition: at the top concentration
Procedure, shortened: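 Counter-screen on LH receptor–transfected HEK 293 cells: 30 min compound exposure at room temperature in medium containing 100 uM RO 20-1724 phosphodiesterase inhibitor. Cellular cAMP read by competitive HTRF after lysis with d2-cAMP and anti-cAMP antibody (330 nm excitation; 615/660 nm emission).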
% is scaled to controls: 0 for no effect and ±100 for the full control effect.

Activity change, negative = inhibition, inactive:
CCOC(=O)N1CCN(C(=O)c2ccc3c(c2)N=C(CC)c2cc(C)ccc2S3)CC1 -1.95%
CC(C)(C)OC(=O)N[C@@H](Cc1ccccc1)c1nnc(S(=O)(=O)Cc2cccc(F)c2)o1 -1.91%
COc1ccccc1CNS(=O)(=O)c1ccc(-n2cccn2)cc1 1.53%
CC(C)c1ccccc1OCCNC(=O)c1cccnc1 2.01%
CCOC(=O)Cn1c(=NC(=O)CSC(C)=O)sc2ccccc21 -4.14%
COc1cc(OC)cc(-c2cc3cc4c(cc3cn2)OCO4)c1 -6.3%
Cc1ccccc1-n1sc2cc(F)ccc2c1=O -0.805%
O=C(CN1C(=O)NC2(CCCCCC2)C1=O)N1CCC(Cc2ccccc2)CC1 -0.781%
C=CCN(c1ccccc1)S(=O)(=O)c1ccc2[nH]cc(C(=O)NCCOC)c(=O)c2c1 0.331%
C/C(=N/OCO/N=C(/C)c1ccc(F)cc1)c1ccc(F)cc1 2.18%
O=C(Nc1ccncc1)Nc1cc(Cl)ccc1Cl -0.049%
Nc1c(C(=O)NCc2ccc3c(c2)OCO3)nnn1CC(=O)Nc1ccc(Br)cc1 1.7%
COC(=O)c1ccc(C2C(Oc3ccccc3C)C(=O)N2CCc2ccc(OC)c(OC)c2)cc1 (centres undefined) -0.367%
Clc1c(CSc2nc3ccccc3o2)nc2ccccn12 1.57%
COCCNc1cnn(-c2ccccc2)c(=O)c1Cl 2.21%
CC(=O)c1ccc(S(=O)(=O)N2CCN(CCOc3ccc(Br)cc3)CC2)cc1 -6.47%
O=C1C=C(c2ccc(Cl)c(C(F)(F)F)c2)C[C@@H](c2ccc(Cl)cc2)C1 0.68%
O=C(Nc1ccn(Cc2ccccc2F)n1)c1ccc(COc2ccccc2Cl)cc1 -8.68%
CC1CCN(CCCNC(=O)CN2C(=O)CSc3ccc(S(=O)(=O)N4CCOCC4)cc32)CC1 0.922%
Cc1cc(C(=O)CCl)c(C)n1CCc1ccccc1 -0.254%
C=C(C)CNc1cc(S(=O)(=O)N2CCOCC2)ccc1Oc1ccccc1 -2.45%
Cc1cccc(NC(=O)CCN2CCN(C)CC2)c1 0.909%
COC(=O)c1c(NC(NC(=O)CC(C)C)C(Cl)(Cl)Cl)sc2c1CCC2 (centres undefined) -2.49%
CCOC(=O)c1c(NC(NC(=O)C(C)C)C(Cl)(Cl)Cl)sc2c1CCC2 (centres undefined) -0.795%
CCOc1ccccc1NC(=O)C1(S(=O)(=O)c2ccc(Cl)cc2)CC1 1.77%
Cn1c(CNC(=O)c2ccc(Cl)cc2)nnc1SCC(=O)NC1CCCC1 2.45%
C=CCNc1ncnc2ccc(Br)cc12 -1.43%
O=C1NC(=S)S/C1=C\c1cc2ccccc2nc1N1CCCCC1 -1.93%
CCOc1ccc(Nc2nc(Cc3nnc(SCC(=O)c4ccc(C)cc4)o3)cs2)cc1 0.729%
CC(C)NC(=O)COc1coc(CN2CCN(c3ccccc3F)CC2)cc1=O -1.04%
CCc1ccc(NS(=O)(=O)c2cc3[nH]c(=O)c(=O)[nH]c3cc2C)cc1 1.73%
COc1ccc(/C=C2/SC(=S)NC2=O)cc1OCc1ccccc1 -0.852%
CC(C)C1Nc2ccc(C(=O)N3CCN(c4ccccn4)CC3)cc2NC1=O (centres undefined) 0.794%
Cc1ccccc1NC(=O)C1(C)Cc2ccccc2C(=O)O1 (centres undefined) 0.461%
COC(=O)c1ccc(/C(O)=C(\C#N)c2nc3ccccc3s2)cc1 -2.62%
CCOC(=O)c1c(-c2ccccc2)csc1NC(=O)CSc1nnnn1C -1.45%
COc1ccc(CNC(=O)CCS(=O)(=O)c2cc3c(cc2Cl)NC(=O)CO3)cc1 -1.07%
Cc1onc(-c2c(Cl)cccc2Cl)c1C(=O)N1CCc2ccccc2C1 0.0011%
Cc1cc(OCc2cc(C(=O)NCc3csc(C(C)C)n3)no2)cc(C)c1Cl -5.46%
CC(C)Oc1ccc(C(=O)NCCNC(=O)c2ccco2)cc1 -1.04%
Cc1onc(-c2ccccc2Cl)c1C(=O)NC(=S)Nc1ccc(C(C)(C)C)cc1 -1.66%
CCOc1ncccc1C(=O)Nc1ccc(C)c(S(=O)(=O)N2CCCCCC2)c1 -6.55%
O=C(Nc1ccc(Cl)cc1)c1cc2c(cc1O)[nH]c1ccccc12 -4.57%
COc1ccc(/C=C/C(=O)Nc2nc(C)cc(C)n2)cc1OC 1.32%
CCCc1ccc(-c2c(C)sc(NC(=O)c3ccnn3C)c2C#N)cc1 -2.95%
COc1cccc(-c2nc(-c3ccc(NC(=O)c4cccnc4)cc3)no2)c1 -3.43%
CC(C)CN=Cc1c(O)c([N+](=O)[O-])cc2oc3c(c12)CCCC3 3.45%
Cc1cccc(/C=C/C(=O)c2cc(Br)ccc(=O)c2O)c1 -0.0449%
Cc1cc2nc(-c3ccc(NC(=O)c4cccnc4)cc3)oc2cc1C -7.47%
COc1ccc(-c2nnc(NC(=O)c3ccc(S(=O)(=O)N4CCCc5ccccc54)cc3)o2)cc1 -0.489%
COc1ccc(CNC(=O)CCS(=O)(=O)c2ccc3c(c2)CCN3C(C)=O)cc1 2.64%
N#CC(C#N)=NNc1ccc(S(=O)(=O)N2CCCCC2)cc1 -0.397%
CN(C)c1ccc(NC(=O)C2C3C=CC(C3)C2C(=O)O)cc1 (centres undefined) -0.913%
Nc1nc2nc(-c3ccccc3)cc(C(F)(F)F)c2s1 1.46%
CCOc1ccc(CN(C)c2ccc(S(=O)(=O)N3CCN(C)CC3)cc2[N+](=O)[O-])cc1OC -0.472%
O=C(c1ccc(Cl)c(S(=O)(=O)N2CCCCC2)c1)N1CCCC1 1.04%
CCCCOc1ncnc2c1[nH]c1ccccc12 -2.8%
O=C(c1ccc2c(=O)n(Cc3ccc4c(c3)OCO4)c(=S)[nH]c2c1)N1CCCCC1 -0.164%
COC(=O)c1ccc(NC(=O)Nc2ccc(F)c(Cl)c2)cc1 -2.51%
O=C(Nc1cccc(S(=O)(=O)Nc2ccc(Cl)cc2)c1)c1ccc2c(c1)OCCO2 -0.572%
Nc1nnc(COc2ccc(Br)cc2Br)s1 2.07%
COc1cc(C(C)=O)ccc1OCC(=O)Nc1ccc(Cl)c(S(=O)(=O)N2CCOCC2)c1 -7.28%
CCCCn1c(-c2c(Cl)c(C)nn2C)n[nH]c1=S 2.87%
COc1ccc(CCNC(=O)c2ccc(-c3ccc([N+](=O)[O-])cc3Cl)o2)cc1OC -3.25%
Nc1nc(SCC(=O)NCC2CCCO2)[nH]c(=O)c1NC(=O)c1ccc(F)c(F)c1 (centres undefined) 2.07%
Cc1ccccc1-c1cc(C(=O)Nc2sc(C(=O)OC(C)C)c(C)c2C#N)c2ccccc2n1 -2.46%
CC(Sc1nnc(-c2cccs2)n1Cc1ccccc1)C(=O)NCc1ccc2c(c1)OCO2 (centres undefined) -1.32%
COc1ccc(C2=NS(=O)(=O)N(C)C(C(=O)Nc3ccc4c(c3)OCO4)=C2)cc1OC -5.74%
N#C/C(=N\Nc1ccc(S(=O)(=O)N2CCc3ccccc32)cc1)C(N)=S 0.812%
Cc1ccc(OCc2cc(C(=O)NC3CCCCC3)no2)cn1 -0.815%
Cc1cc(NC(=O)c2cc(-c3ccco3)on2)nn1Cc1ccc(Cl)cc1 -5.37%
COc1cc(/C=N/OCC(=O)NC23CC4CC(CC(C4)C2)C3)ccc1OCc1ccccc1 -8.02%
Cc1cc(C(=O)CSc2nnc(-c3ccccc3F)o2)c(C)n1Cc1cccs1 -3.03%
Cc1cc(C)c2oc(C(=O)Nc3ccc(S(=O)(=O)Nc4nccc(C)n4)cc3)cc(=O)c2c1 1.23%
Cc1cc(Br)ccc1OCC(=O)NC1CCCC1 -3.6%
COc1ccc(/C=C/C(=O)c2ccc(NS(=O)(=O)c3ccc(C)cc3)cc2)cc1O -4.06%
CCN(C(=O)CSc1nnc(-c2ccccc2)o1)c1c(N)n(Cc2ccccc2)c(=O)[nH]c1=O -0.973%
O=C(Nc1nnc(S(=O)(=O)N2CCCC2)s1)c1ccccc1F 0.295%
CCN(Cc1ccccc1)c1ccc(/C=C(\C#N)c2ccccn2)cc1 -6.87%
CS(=O)c1ccc(-n2c(=O)n(Cc3ccccc3)c(=O)c3[nH]cnc32)cc1 (centres undefined) 0.809%
CN1C(=O)/C(=C/c2ccc(OCc3ccccc3F)cc2)NC1=S 0.405%
CC(C)(CNC(=O)C1c2ccccc2-c2ccccc21)N1CCOCC1 2.91%
CC(C)Cc1nc2oc3c(Cl)ncnc3c2c2c1CCC2 -4.6%
Cc1nc(SCC(=O)N2CCN(c3ccccc3)CC2)n[nH]1 -1.71%
Cc1ccc(S(=O)(=O)N2[C@@H](c3ccccc3F)C(C(=O)O)=CC[C@H]2c2ccc(Cl)c(Cl)c2)cc1 1.86%
CCOC(=O)CCCCCC(=O)Nc1ccc2c(c1)CC(=O)N([C@H](C)CO)C[C@@H](C)[C@H](CN(C)Cc1ccc3c(c1)OCO3)O2 1.07%
COC(=O)Cc1c(C)[nH]n(-c2cc(Cl)cc(Cl)c2)c1=O -0.389%
COc1ccc(C(=O)Nc2cccc(NC(=O)c3cccs3)c2)cc1OC -0.592%
CC(=O)N/N=C\c1ccccc1OC/C=C/c1ccccc1 2.74%
CC(C)Cc1ccc(C(C)C(=O)Nc2nccs2)cc1 (centres undefined) -2.8%
O=C(Nc1ccc(SC(F)F)cc1)c1ccc2c(=O)n3c(nc2c1)CCC3 -2.9%
CCOC(=O)C1(CCOc2ccccc2)CCN(Cc2cccc(OC)c2O)CC1 2.43%
O=C(Nc1cc(S(=O)(=O)N2CCCCC2)ccc1Cl)c1ccccc1NS(=O)(=O)c1ccc(F)cc1 -2.9%
COc1ccccc1-n1cnc2cc(NS(=O)(=O)c3ccc(Br)cc3)ccc21 0.0454%
O=C(CC1S/C(=N/N=C2CCCCCC2)NC1=O)Nc1ccc(Br)cc1F (centres undefined) 2.65%
Cc1cc(C(=O)CSc2nc3ccccc3[nH]2)c(C)n1CC1CCCO1 (centres undefined) -6.32%
CCCC(=O)Nc1cccn(Cc2ccccc2Br)c1=O 0.707%
CC(C)(C)c1ccc(C(=O)CC(Sc2ccc(Cl)cc2)C(=O)O)cc1 (centres undefined) -2.49%
COc1ccc(-n2nc(C(=O)NCC(=O)Nc3cc(OC)c(OC)c(OC)c3)c3ccccc3c2=O)cc1OC -0.232%
Cc1ncsc1CCOC(=O)C1C2CC3CC(C2)CC1C3 (centres undefined) -1.68%
CCc1ccc(-c2nnn(CCC(=O)OC)n2)cc1 2.98%
Brc1cc2c(cc1/C=N/Nc1nc(N3CCOCC3)nc(N3CCOCC3)n1)OCO2 1.14%
COc1ccc(-c2cc(-c3ccccc3)c(C#N)c(S(C)=O)n2)cc1 (centres undefined) -1.58%
CC(=O)Oc1c(C)cc(Cl)cc1C(=O)Nc1ccc([N+](=O)[O-])cc1Cl -5.01%
